# Measured values from article PMC12136788.
# The other results are listed elsewhere or left out.
# B1: chr16:88813726:88813828:-|3pUTR|ENSG00000141012|unk|total|mutant (ssRNA)
# RNA: GGGAGUUCUACAGUCCGACGAUCUCCCUGGACGCUAAUUAUGAGGGAGGCGUGCCGCUUCUUAUCAUUGUAACUAUGUUAUUCCGAAAUAAAACGGGAGGCAGGUUUGCCUAAUUCCCAGCUUGAUUUUUCUCUUGGCUGAGUCAACAGAGGAUUGAGCAUCA
# B2: chr17:49053040:49053141:+|3pUTR|ENSG00000159217|unk|total|mutant (ssRNA)
# RNA: GGGAGUUCUACAGUCCGACGAUCCUCAGCUCCUGUGAGGGGUCUGGUCCGGAGAGAGCCAUUUUUAAGGACAGGGAGUUUUACCGCCCUUUUCUACUUUCCUCCCCUCCUCCCAGUCCUUAUCAAUCUUUUUUCCUUUUUCCUCAACAGAGGAUUGAGCAUCA
# B3: chr14:44924370:44924471:-|3pUTR|ENSG00000179454|unk|total|mutant (ssRNA)
# RNA: GGGAGUUCUACAGUCCGACGAUCACCUUUUCCGCAUCAGGGUUUUAUUUUAUUUAUGUUUACACACUAAAGUGUCAUUUAACCCGUUAAGAAUUGUAUUCUUUUUUAUUUUAAAGGUUAUUUGUGUGUAUCAUUGUGGUAAUGCAACAGAGGAUUGAGCAUCA
# B4: chr7:107202531:107202632:-|3pUTR|ENSG00000164597|msi1|FALSE|unique (ssRNA)
# RNA: GGGAGUUCUACAGUCCGACGAUCUAUUCUGAGAACUCAUAAAUAAAAUUCAGCCAAGAUUAAUCAAUCAAUCAAUCAAUCAGUAGACGUCAGAGAUAAGCAACUUUUUUUUCCAUUUAUUUGAAAUAAUAUACAAGAAUAUAGCAACAGAGGAUUGAGCAUCA
# B5: chr3:43366700:43366801:-|3pUTR|ENSG00000160746|unk|FALSE|unique (ssRNA)
# RNA: GGGAGUUCUACAGUCCGACGAUCACGGUGGCAGGGGGGGUACCCGGGGCAGCAUCGUGGCUCCUGAACCCAGACCCAAUGCUUAGCCAAACGAAGUGGCUCCCAUGUGGCAAGCACCCUUCUCAGUUUCGCAGUGGCUUGGCUCAACAGAGGAUUGAGCAUCA
# B6: ENSG00000151012:stop:overlap|stop_codon|ENSG00000151012|stop_codon|NA|stop_codon (ssRNA)
# RNA: GGGAGUUCUACAGUCCGACGAUCCUGAAGAAGUAGAAAACCCUGAAAAACCUUUUCUGAGCGGCUACUGGGAAAUUUCUCAUUAGCAGUUCCGAUCUUUGUUGCCCUCUCCUGCUUUGGCUCCAUGAACGGUGGUGUGUUUGCCAACAGAGGAUUGAGCAUCA
# B7: chr3:186556460:186556561:-|CDS|ENSG00000113838|unk|FALSE|unique (ssRNA)
# RNA: GGGAGUUCUACAGUCCGACGAUCAGAGCCAGGAAGAUCUAUCCACUUCAUGAACUUGCACUGUGGCAACCACUGCAUGCAGAUAGUGGCUUCUCAAAGAUCUCUAAGACUUUCUCUUUCUACAAACUGGAAACCUGGUUGAGGCAACAGAGGAUUGAGCAUCA
# B8: chr17:4671690:4673145:-|CDS|ENSG00000141456|control|control|control (ssRNA)
# RNA: GGGAGUUCUACAGUCCGACGAUCGGAGGAAGAAGAACUGGAAGAGGUGGAAGACCUGGAGUUUGGCACAGCAGGAGGGGAGGUAGAAGAAGGUGCACCUCCACCCCCAACCCUGCCUCCAGCUCUGCCUCCCCCUGAGUCUCCCAACAGAGGAUUGAGCAUCA
# B9: chr15:22826343:22826444:+|3pUTR|ENSG00000170113|msi1|FALSE|unique (ssRNA)
# RNA: GGGAGUUCUACAGUCCGACGAUCAAAGUCCAUUACUCUUUUUAUUGGCUCUUGCAGGUUUUGUGUUUUAUCAUCAGUGCUUUUAGAAAUGCAGGCCUUAACUUACUGAACUGAACUUUCUGAAAACGUAAUGUAGCAGUAUCACAACAGAGGAUUGAGCAUCA
# B10: ENSG00000198589:be:win_8351|CDS|ENSG00000198589|bound_else_gene|NA|bound_elsewhere_windowed (ssRNA)
# RNA: GGGAGUUCUACAGUCCGACGAUCUCACAGGAGGAGACAGAGGAGUGGUCGUGGUCCGGCAGGUGUCGGACCUCAAGCAGCUCUUUGCCUAUCCAGGAUGUGACGCUGGAAUCCGGGCCAUGGCGCUGUCUUACGACCAGAGGUCAACAGAGGAUUGAGCAUCA
# B11: ENSG00000107863:be:win_4501|CDS|ENSG00000107863|bound_else_gene|NA|bound_elsewhere_windowed (ssRNA)
# RNA: GGGAGUUCUACAGUCCGACGAUCGAAGAACCCUCACCACCACACAACUCAAAACACAACAAGUCACCAACUCUCAGCUGUCGCUUUGCCAUCCUGAAAGAGAGCCCCAGGUCACUUCUGGCACAGAAGUCCUCCCACCUUGAACAACAGAGGAUUGAGCAUCA
# B12: chr16:74503563:74503676:-|CDS|ENSG00000090863|unk|total|mutant (ssRNA)
# RNA: GGGAGUUCUACAGUCCGACGAUCGGCAACAUCACUGAGUAUCAGUGUCACCAGUACAUUACCAAGAUGACGGCCAUCAUUUUCCGUGAUUACCGUUUAAUCUGUGGCUUCAUGGAUGACUGCAAAAAUGACAUCAACAUUCUGCAACAGAGGAUUGAGCAUCA
# B13: ENSG00000113758:stop:overlap|stop_codon|ENSG00000113758|stop_codon|NA|stop_codon (ssRNA)
# RNA: GGGAGUUCUACAGUCCGACGAUCUCACAUGCUGGGAUGCAGACCCAGUUCCAGAAGAGGAGGAGGGCUUCGAGGGUGGUGAUUAGCGGUGGCGCCAGCCCUAGGCUACCCUUGCCAAGGCCGCCCACCUGCAUCAGCCUCUGGCAACAGAGGAUUGAGCAUCA
# B14: chr5:137939581:137939637:-|3pUTR|ENSG00000031003|msi1_unk|FALSE|overlapping (ssRNA)
# RNA: GGGAGUUCUACAGUCCGACGAUCUGUUAGUAAAAUUUUGCAAUUCGCUGGUCACACAGCUCCCGGAUGAAGAUAACAGUUGGUAGACCAAAAGGUGACCUCGCUUAGUAUAUUGAAAACACACACCACACAUCACACACAGAACAACAGAGGAUUGAGCAUCA
# Biological target: MSI1 full-length (mouse, UniProt Q61474 1-362)
# Assay: nsRBNS (natural sequence RNA bind-n-seq); RBNS binding buffer (assumed for nsRBNS): 25 mM Tris pH 7.5, 150 mM KCl, 3 mM MgCl2, 0.01% Triton X-100, 500 ug/ml BSA, 20 U/ml SUPERase-In, 4 C; UNK is unkempt and MSI1 is Musashi-1; names of the RNAs are library labels; protein concentration not given here; high values mean tight binding
# UniProt Q61474, sequence (Q61474 whole entry): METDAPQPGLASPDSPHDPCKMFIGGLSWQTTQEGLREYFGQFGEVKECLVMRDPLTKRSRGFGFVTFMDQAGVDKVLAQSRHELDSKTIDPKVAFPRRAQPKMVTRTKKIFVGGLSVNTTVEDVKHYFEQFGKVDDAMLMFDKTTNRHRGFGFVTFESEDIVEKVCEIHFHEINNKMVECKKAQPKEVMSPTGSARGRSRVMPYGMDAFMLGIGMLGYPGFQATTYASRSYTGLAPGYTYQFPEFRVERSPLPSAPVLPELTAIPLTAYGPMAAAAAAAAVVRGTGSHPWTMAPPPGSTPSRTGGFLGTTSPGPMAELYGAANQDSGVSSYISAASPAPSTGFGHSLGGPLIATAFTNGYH
row,Binder,binding signal
1,B1,0.301 enrichment R
2,B2,0.698 enrichment R
3,B3,0.653 enrichment R
4,B4,5.92 enrichment R
5,B5,0.447 enrichment R
6,B6,0.404 enrichment R
7,B7,0.307 enrichment R
8,B8,0.51 enrichment R
9,B9,3.29 enrichment R
10,B10,0.449 enrichment R
11,B11,0.787 enrichment R
12,B12,0.274 enrichment R
13,B13,0.694 enrichment R
14,B14,6.62 enrichment R
